Experimental data: patent publication US20140315876A1, “BETA-LACTAMASE INHIBITORS” (priority 2013, published 2014)
Structures can show the parent of a compound that is named as a salt. Some results were stated once for a whole list of compounds, not compound by compound. At least one structure is not confirmed: it was looked up by name or label, or the drawing left a doubt.

These molecules were tested against KPC-2 β-lactamase (Klebsiella pneumoniae, UniProt Q9F663). Details: KPC-2, 100 μM nitrocefin, PBS pH 7.4, 25° C. (Table IV).
Type: biochemical, K. pneumoniae

KPC-2 β-lactamase, sequence (Q9F663 25-293 limits assumed): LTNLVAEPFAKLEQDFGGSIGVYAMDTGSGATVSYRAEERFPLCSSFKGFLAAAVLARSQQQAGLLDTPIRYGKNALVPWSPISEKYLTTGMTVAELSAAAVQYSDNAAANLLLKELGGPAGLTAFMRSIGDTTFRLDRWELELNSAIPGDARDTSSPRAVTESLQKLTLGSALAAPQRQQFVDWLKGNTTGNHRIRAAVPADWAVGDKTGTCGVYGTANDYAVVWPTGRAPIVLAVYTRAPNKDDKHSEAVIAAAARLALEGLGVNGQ

Structure (SMILES) | binding affinity (kinact/K) for the β-lactamase enzyme [M⁻¹ s⁻¹]
O=C1N2C[C@@H](CC[C@H]2c2nnco2)N1OS(=O)(=O)O [Compound 701, (2S,5R)-2-(1,3,4-oxadiazol-2-yl)-7-oxo-1,6-diazabicyclo[3.2.1]octan-6-yl hydrogen sulfate] | 100000 to 999000
NCc1nnc([C@@H]2CC[C@@H]3CN2C(=O)N3OS(=O)(=O)O)o1 [Compound 702, (2S,5R)-2-(5-(aminomethyl)-1,3,4-oxadiazol-2-yl)-7-oxo-1,6-diazabicyclo[3.2.1]octan-6-yl hydrogen sulfate] | 100000 to 999000
NCCc1nnc([C@@H]2CC[C@@H]3CN2C(=O)N3OS(=O)(=O)O)o1 [Compound 703, (2S,5R)-2-(5-(2-aminoethyl)-1,3,4-oxadiazol-2-yl)-7-oxo-1,6-diazabicyclo[3.2.1]octan-6-yl hydrogen sulfate] | 100000 to 999000
N=C(N)NCc1nnc([C@@H]2CC[C@@H]3CN2C(=O)N3OS(=O)(=O)O)o1 [Compound 704, (2S,5R)-2-(5-(guanidinomethyl)-1,3,4-oxadiazol-2-yl)-7-oxo-1,6-diazabicyclo[3.2.1]octan-6-yl hydrogen sulfate] | 1000 to 99000
N=C(N)NCCc1nnc([C@@H]2CC[C@@H]3CN2C(=O)N3OS(=O)(=O)O)o1 [Compound 705, (2S,5R)-2-(5-(2-guanidinoethyl)-1,3,4-oxadiazol-2-yl)-7-oxo-1,6-diazabicyclo[3.2.1]octan-6-yl hydrogen sulfate] | 100000 to 999000
Nc1nnc([C@@H]2CC[C@@H]3CN2C(=O)N3OS(=O)(=O)O)o1 [Compound 707, (2S,5R)-2-(5-amino-1,3,4-oxadiazol-2-yl)-7-oxo-1,6-diazabicyclo[3.2.1]octan-6-yl hydrogen sulfate] | 100000 to 999000
O=C1N2C[C@@H](CC[C@H]2c2nnc(C3CNC3)o2)N1OS(=O)(=O)O [Compound 708, (2S,5R)-2-(5-(azetidin-3-yl)-1,3,4-oxadiazol-2-yl)-7-oxo-1,6-diazabicyclo[3.2.1]octan-6-yl hydrogen sulfate] | 1000 to 99000
N=C(N)N1CC(c2nnc([C@@H]3CC[C@@H]4CN3C(=O)N4OS(=O)(=O)O)o2)C1 [Compound 709, (2S,5R)-2-(5-(1-carbamimidoylazetidin-3-yl)-1,3,4-oxadiazol-2-yl)-7-oxo-1,6-diazabicyclo[3.2.1]octan-6-yl hydrogen sulfate] | 100000 to 999000
O=C1N2C[C@@H](CC[C@H]2c2nnc(C3CCNC3)o2)N1OS(=O)(=O)O (stereo partly drawn) [Compound 710, (2S,5R)-7-oxo-2-(5-(pyrrolidin-3-yl)-1,3,4-oxadiazol-2-yl)-1,6-diazabicyclo[3.2.1]octan-6-yl hydrogen sulfate] | 1000 to 99000
O=C1N2C[C@@H](CC[C@H]2c2nnc(C3CCNCC3)o2)N1OS(=O)(=O)O [Compound 711, (2S,5R)-7-oxo-2-(5-(piperidin-4-yl)-1,3,4-oxadiazol-2-yl)-1,6-diazabicyclo[3.2.1]octan-6-yl hydrogen sulfate] | 100000 to 999000
N=C(N)N1CCC(c2nnc([C@@H]3CC[C@@H]4CN3C(=O)N4OS(=O)(=O)O)o2)CC1 [Compound 712, (2S,5R)-2-(5-(1-carbamimidoylpiperidin-4-yl)-1,3,4-oxadiazol-2-yl)-7-oxo-1,6-diazabicyclo[3.2.1]octan-6-yl hydrogen sulfate] | 100000 to 999000
O=C1N2C[C@@H](CC[C@H]2c2nnc(N3CCNCC3)o2)N1OS(=O)(=O)O [Compound 713, (2S,5R)-7-oxo-2-(5-(piperazin-1-yl)-1,3,4-oxadiazol-2-yl)-1,6-diazabicyclo[3.2.1]octan-6-yl hydrogen sulfate] | 100000 to 999000
N=C(N)NCCCc1nnc([C@@H]2CC[C@@H]3CN2C(=O)N3OS(=O)(=O)O)o1 [Compound 714, (2S,5R)-2-(5-(3-guanidinopropyl)-1,3,4-oxadiazol-2-yl)-7-oxo-1,6-diazabicyclo[3.2.1]octan-6-yl hydrogen sulfate] | 100000 to 999000
NCC(O)c1nnc([C@@H]2CC[C@@H]3CN2C(=O)N3OS(=O)(=O)O)o1 (stereo partly drawn) [Compound 715, (2S,5R)-2-(5-(2-amino-1-hydroxyethyl)-1,3,4-oxadiazol-2-yl)-7-oxo-1,6-diazabicyclo[3.2.1]octan-6-yl hydrogen sulfate] | 1000 to 99000
NCCNCCc1nnc([C@@H]2CC[C@@H]3CN2C(=O)N3OS(=O)(=O)O)o1 [Compound 716, (2S,5R)-2-(5-(2-((2-aminoethyl)amino)ethyl)-1,3,4-oxadiazol-2-yl)-7-oxo-1,6-diazabicyclo[3.2.1]octan-6-yl hydrogen sulfate] | 1000 to 99000
NCC(N)c1nnc([C@@H]2CC[C@@H]3CN2C(=O)N3OS(=O)(=O)O)o1 (stereo partly drawn) [Compound 717, (2S,5R)-2-(5-(1,2-diaminoethyl)-1,3,4-oxadiazol-2-yl)-7-oxo-1,6-diazabicyclo[3.2.1]octan-6-yl hydrogen sulfate] | 1000 to 99000
NCCc1nnc([C@@H]2CC[C@@H]3CN2C(=O)N3OS(=O)(=O)O)s1 [Compound 718, (2S,5R)-2-(5-(2-aminoethyl)-1,3,4-thiadiazol-2-yl)-7-oxo-1,6-diazabicyclo[3.2.1]octan-6-yl hydrogen sulfate] | 1000 to 99000
O=C1N2C[C@@H](CC[C@H]2c2nnc(C3CCNCC3)s2)N1OS(=O)(=O)O [Compound 719, (2S,5R)-7-oxo-2-(5-(piperidin-4-yl)-1,3,4-thiadiazol-2-yl)-1,6-diazabicyclo[3.2.1]octan-6-yl hydrogen sulfate] | 1000 to 99000
NCCCc1nnc([C@@H]2CC[C@@H]3CN2C(=O)N3OS(=O)(=O)O)o1 [Compound 720, (2S,5R)-2-(5-(3-aminopropyl)-1,3,4-oxadiazol-2-yl)-7-oxo-1,6-diazabicyclo[3.2.1]octan-6-yl hydrogen sulfate] | 100000 to 999000
N=C(N)NCc1nnc([C@@H]2CC[C@@H]3CN2C(=O)N3OS(=O)(=O)O)s1 [Compound 721, (2S,5R)-2-(5-(guanidinomethyl)-1,3,4-thiadiazol-2-yl)-7-oxo-1,6-diazabicyclo[3.2.1]octan-6-yl hydrogen sulfate] | 1000 to 99000
CNCCc1nnc([C@@H]2CC[C@@H]3CN2C(=O)N3OS(=O)(=O)O)o1 [Compound 722, (2S,5R)-2-(5-(2-(methylamino)ethyl)-1,3,4-oxadiazol-2-yl)-7-oxo-1,6-diazabicyclo[3.2.1]octan-6-yl hydrogen sulfate] | 1000 to 99000
N=C(N)NCC1(c2nnc([C@@H]3CC[C@@H]4CN3C(=O)N4OS(=O)(=O)O)o2)CC1 [Compound 723, (2S,5R)-2-(5-(1-(guanidinomethyl)cyclopropyl)-1,3,4-oxadiazol-2-yl)-7-oxo-1,6-diazabicyclo[3.2.1]octan-6-yl hydrogen sulfate] | 1000 to 99000
NC1(Cc2nnc([C@@H]3CC[C@@H]4CN3C(=O)N4OS(=O)(=O)O)o2)CC1 [Compound 724, (2S,5R)-2-(5-((1-aminocyclopropyl)methyl)-1,3,4-oxadiazol-2-yl)-7-oxo-1,6-diazabicyclo[3.2.1]octan-6-yl hydrogen sulfate] | 1000 to 99000
O=C1N2C[C@@H](CC[C@H]2c2nnc(CC3CNC3)o2)N1OS(=O)(=O)O [Compound 725, (2S,5R)-2-(5-(azetidin-3-ylmethyl)-1,3,4-oxadiazol-2-yl)-7-oxo-1,6-diazabicyclo[3.2.1]octan-6-yl hydrogen sulfate] | 1000 to 99000
O=C1N2C[C@@H](CC[C@H]2c2nnc(CNC3CNC3)o2)N1OS(=O)(=O)O [Compound 726, (2S,5R)-2-(5-((azetidin-3-ylamino)methyl)-1,3,4-oxadiazol-2-yl)-7-oxo-1,6-diazabicyclo[3.2.1]octan-6-yl hydrogen sulfate] | 1000 to 99000
N[C@@H]1CC[C@H](c2nnc([C@@H]3CC[C@@H]4CN3C(=O)N4OS(=O)(=O)O)o2)C1 [Compound 729, (2S,5R)-2-(5-((1S,3R)-3-aminocyclopentyl)-1,3,4-oxadiazol-2-yl)-7-oxo-1,6-diazabicyclo[3.2.1]octan-6-yl hydrogen sulfate] | 1000 to 99000
N=C(N)NCC(O)Cc1nnc([C@@H]2CC[C@@H]3CN2C(=O)N3OS(=O)(=O)O)o1 (stereo partly drawn) [Compound 730, (2S,5R)-2-(5-(3-guanidino-2-hydroxypropyl)-1,3,4-oxadiazol-2-yl)-7-oxo-1,6-diazabicyclo[3.2.1]octan-6-yl hydrogen sulfate] | 100000 to 999000
N=C(N)NC[C@@H](O)c1nnc([C@@H]2CC[C@@H]3CN2C(=O)N3OS(=O)(=O)O)o1 [Compound 731, (2S,5R)-2-(5-((R)-2-guanidino-1-hydroxyethyl)-1,3,4-oxadiazol-2-yl)-7-oxo-1,6-diazabicyclo[3.2.1]octan-6-yl hydrogen sulfate] | 1000 to 99000
N=C(N)NC[C@H](O)c1nnc([C@@H]2CC[C@@H]3CN2C(=O)N3OS(=O)(=O)O)o1 [Compound 732, (2S,5R)-2-(5-((S)-2-guanidino-1-hydroxyethyl)-1,3,4-oxadiazol-2-yl)-7-oxo-1,6-diazabicyclo[3.2.1]octan-6-yl hydrogen sulfate] | 1000 to 99000
NCC(O)Cc1nnc([C@@H]2CC[C@@H]3CN2C(=O)N3OS(=O)(=O)O)o1 (stereo partly drawn) [Compound 733, (2S,5R)-2-(5-(3-amino-2-hydroxypropyl)-1,3,4-oxadiazol-2-yl)-7-oxo-1,6-diazabicyclo[3.2.1]octan-6-yl hydrogen sulfate] | 1000 to 99000
